Measurements as given in the supplement of paper PMC3334620.
The full ranking holds about 33,000 sequences; the median of “E-score (-0.5 to 0.5)” is about -0.041, and the highest 2% start at about 0.37. The list shows a part of the results.

target: T1, Ecm22 (UniProt Q05958); experiment: PBM E-score (8-mer binding enrichment) (E-score (-0.5 to 0.5)); higher = stronger / more preferred TF binding; most listed sequences are background and not binding sites; conditions: protein concentration: 200 nM; construct: GST-full length
T1 sequence: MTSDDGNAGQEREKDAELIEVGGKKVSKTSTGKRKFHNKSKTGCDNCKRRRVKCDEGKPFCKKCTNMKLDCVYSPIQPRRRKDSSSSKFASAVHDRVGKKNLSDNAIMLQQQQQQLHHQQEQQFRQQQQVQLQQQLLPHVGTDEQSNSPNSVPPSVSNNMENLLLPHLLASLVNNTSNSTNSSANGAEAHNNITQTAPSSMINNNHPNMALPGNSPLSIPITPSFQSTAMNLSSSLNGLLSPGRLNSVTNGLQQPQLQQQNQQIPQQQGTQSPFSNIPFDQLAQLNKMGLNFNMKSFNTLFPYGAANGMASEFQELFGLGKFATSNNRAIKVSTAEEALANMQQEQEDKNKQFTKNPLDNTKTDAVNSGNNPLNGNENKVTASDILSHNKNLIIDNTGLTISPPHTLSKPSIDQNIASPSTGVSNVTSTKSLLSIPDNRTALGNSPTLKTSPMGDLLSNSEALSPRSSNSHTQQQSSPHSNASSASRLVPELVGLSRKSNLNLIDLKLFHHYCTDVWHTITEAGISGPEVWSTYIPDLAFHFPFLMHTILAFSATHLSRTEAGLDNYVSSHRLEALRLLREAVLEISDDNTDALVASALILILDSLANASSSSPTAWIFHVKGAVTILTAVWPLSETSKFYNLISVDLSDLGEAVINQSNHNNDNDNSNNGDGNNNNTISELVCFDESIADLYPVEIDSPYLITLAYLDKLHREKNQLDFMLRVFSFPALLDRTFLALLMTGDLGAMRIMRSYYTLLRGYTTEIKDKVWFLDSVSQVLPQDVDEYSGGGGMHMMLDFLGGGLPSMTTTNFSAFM
Method in brief: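 PURExpress in vitro transcription/translation supplied GST-tagged yeast transcription factors, either full-length or DNA-binding domain. Applied at about 100-200 nM to universal all-10-mer Agilent arrays double-stranded by primer extension, the bound protein was detected with fluorescent anti-GST. E-scores, modified Wilcoxon-Mann-Whitney statistics, were given by the Universal PBM Analysis Suite to ungapped eight-base words pooled with their reverse complements after masliner normalisation.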

Sequence	PBM E-score
CCGAAGGA	0.0738
CACGATCC	0.125
GCACAAGC	-0.049
AGGGGCCC	-0.23
CTAATTAG	-0.0197
AAGCGCTT	0.004
CATGGCCC	-0.201
ATCCGGTG	0.0947
CCGTATAC	0.456
CCGAGACA	0.0867
CGGTGCAC	0.0613
CTATAGCC	-0.154
ACTATTCA	0.0653
CTCCAGAC	-0.0442
GGGACAAA	-0.216
CGGTTCCC	0.0968
CAACCGCC	-0.215
TAGGTTAA	-0.126
CTTATGTC	-0.0821
TCCGTTAA	0.194
CGACGTTA	0.196
ACTACGGC	-0.0479
CAAGCGGC	-0.058
GACGCGGC	-0.0863
CTCTTTAC	-0.115

Sequence	PBM E-score
ACTTGACA	-0.15
GTTGTCAA	0.036
GCTATTAA	-0.0627
GGAATACC	0.0748
AGAAAACC	-0.0519
GCACATGA	-0.199
CCCGGTCA	-0.281
TCACTTAA	-0.0701
GTAATACA	0.122
ACCATTAG	-0.169
AAGCCCCT	-0.128
ATATTGAC	-0.147
GTCTCTGA	-0.0103
AATGTCAC	-0.18
CGCTTTAA	0.0272
ATTCTGTC	0.0892
ACATAGCT	-0.2
ACAACCTA	-0.044
ACATGGCC	-0.0578
TTGACCAA	-0.198
ATAAACTA	0.0319
CGTAACAA	0.266
CGAAGGAG	0.129
ACGAGTCG	0.384
GAGAGACC	-0.21

Sequence	PBM E-score
TACATCTA	-0.0919
ACGTCCGC	0.0934
ACTCGAAA	0.0636
ACAACCGT	0.161
ACCCACGA	-0.0257
GTGACTAA	-0.037
GAGTCCGA	0.0343
GCCTAAGA	-0.219
GGCGAGTA	-0.0596
ATATCTCA	0.0447
GAGGCTGA	-0.296
TACGAGTA	0.467
CCGAGGTC	0.11
AAGTAAGC	-0.0306
TCTCCTCA	-0.104
GGAGTCTA	-0.398
ATCCTTAA	-0.138
CTTCCCAA	-0.12
GTGGGGGA	-0.123
GATATAAC	0.156
CGATTGGC	-0.0471
ATCACCCG	0.0266
CTCGTCCC	-0.0792
CTCCAGCC	-0.205
ACCTTTCG	0.094

Sequence	PBM E-score
ATTATTTG	0.00973
GTTCTGGA	0.205
TCAAGGAA	-0.181
AATCGCCA	-0.0664
AGTGGTAT	-0.166
TCCCGAAA	0.0359
ACAAGTAT	0.0351
AAGAGTGC	-0.0387
AATTTGGT	-0.00455
AGACTTAC	-0.0949
ATGCTCCG	0.0236
ACCACCCA	-0.173
AATGGATG	-0.0307
ACAGGTAA	-0.0149
ACACAACA	0.0892
AATGTTTC	-0.0614
CTCACTCC	-0.278
CTGAGTTC	-0.0251
GGGGTGAC	-0.162
GCACGCGA	0.0651
CTAAGTCC	-0.259
CCGCAAAC	0.0983
TACCCAAA	-0.112
CTATAGGC	-0.155
CTTGAAAG	-0.0974

Sequence	PBM E-score
CCACCGAG	-0.143
GCGCGAGC	0.0262
ACACTATG	0.0551
GGGCAACC	-0.164
ACTTGTAT	0.00095
AGCTCAAG	-0.182
CCGTCGAA	-0.015
AAATATTA	0.161
ACGAGGTA	0.413
ATCAATCC	-0.12
CGTTCCCA	0.443
CAACAATG	-0.0714
CATATTTC	-0.017
CCGATTGC	0.0808
GTGGACAC	-0.197
CCCCATAG	-0.228
ATAGTCCA	-0.155
AGCATCAG	-0.0729
ATTCCGGG	-0.177
AGGTAATC	-0.00582
CGCGTATC	0.232
AGTTCTGA	-0.25
AAAGGGCA	-0.207
CAACTTCA	-0.0982
TGGGAACA	-0.136

Sequence	PBM E-score
ATAAGACA	0.0326
CTGCTTAC	0.0232
ACAACAGC	-0.12
AGCCCACG	0.0362
ACGCAAAG	0.00366
AAAGTCCT	-0.18
ACGACTTG	0.265
GTGTCTAA	-0.191
AAGGGAGT	-0.172
CATGAAGA	0.07
GTCCTATA	-0.0744
AGACGAAG	0.0703
CGACGATA	0.222
AAATGCAA	-0.183
AACGTGGA	0.143
AAGTTTTC	0.0919
CGACAAAG	0.192
ATTCCTGC	-0.0241
CGCGAACC	0.231
CTGTTCTC	0.106
CCCTCGGC	-0.0239
GAGTCTCC	-0.133
CAAATCTA	-0.0105
GCAAACAC	0.0178
GAACCCGA	0.147

Sequence	PBM E-score
CAGAACGC	-0.0854
GCACTACC	0.00349
ACAGTCGA	-0.111
AAGCAGCG	0.00801
GCAATCCC	-0.0541
AGGTAACA	-0.00283
GAATGAAC	0.177
AAAAGAAA	0.0717
CCTTAAAC	0.119
CGGACCGA	0.331
ACCTCACA	-0.106
CACCGCGG	0.0948
ACCTCGAG	0.134
CATTATTA	0.0693
GCAAGGTA	-0.0994
CAGCCCCA	-0.153
GGATACAA	0.0413
CCTATGAA	-0.148
TGGGGACA	-0.0728
GAGTCTCA	-0.151
AGACATTA	-0.134
ATTGTGAA	-0.0321
CAAAGGCG	0.00346
ACTTACTA	-0.0247
CTTTCTAA	-0.213

Sequence	PBM E-score
ATACCCCA	-0.103
ATAATCTG	-0.213
AGGATCAA	-0.0775
CAAGATCA	-0.0888
ACCCCACC	0.122
AAATCCCT	-0.244
CGACTCAG	-0.016
CGAGAGAG	0.257
CGAACGAG	0.428
GTCGTTGA	0.259
CCATTAGG	-0.264
GGCGGCCC	-0.182
AACATTCA	-0.0167
AATACGAC	0.429
AATCTGGA	-0.119
AGCGGCTC	0.105
GGCCATAA	-0.187
AATACATC	0.0855
CCGGATAC	0.0706
GATTAAAA	-0.0368
CACATGGC	0.0232
AGAAGACC	-0.147
CGTAACTC	0.264
AGGTTCAT	-0.148
CATACCAC	0.0598

Sequence	PBM E-score
CCGCGTGC	-0.089
AGTCGCGA	0.286
TAGTGTGA	0.0564
AGCTATCC	-0.157
CTGTACTA	-0.0527
ACAAATGG	0.00688
CTACACGC	-0.223
AAGTTACA	-0.0991
CCTGCCGA	-0.114
GTACACTA	0.00781
TCCATAGA	-0.225
CTATGGCC	-0.282
CCCGAGGC	-0.151
ACGGGTTA	0.217
CCAACTCG	0.108
ATGCCAAG	-0.171
AGCACGGA	-0.117
CCCTGGAA	-0.179
ACGTATCC	0.0342
